# Results as given in the supplement of paper PMC8728848.
# The list shows a part of the results.
# B1: SP8524D-bot-399-27-399 (Bacteroides ovatus) (protein)
# chain: DAKYDTLDTHAYIEEALSSTSQKVTVQATGESFTTLNVHLSNLSSTDNHYKLVTDQSVLDTYNHINGTGYIMLPKDYYTLPETITVKAGQYAADALSIALKAFSQEMMKSGESYALPVKLVLQDGSISPMENTGTFVILAESIIEFSAPMFVGAPSLKANKFTESPETYSQYTIEVRFQVANTADRDRAVFKNGGDDANFILLRFEDPQSDNENYKAHSLVQIVGRNRLYLNPSNSFKPNEWQHLALVCDGSNYRLYINGVDSGVLSIPTGATTFSDVNWFCLGDDSYSRWGNCKILMSEARIWSVVRSASQIQNNMTQVSPKSVGLEAYWRFNEGQGNVFEDATGKGHTLTTSATPTWIDGILSTDKSTEWK
# Experiments:
# Assay in all cases: glycan array binding signal (z-score within array); higher = stronger binding
# Conditions in all cases: glycan notation: IUPAC condensed, linker removed
# [1] = target: Gal(b1-3)[Fuc(a1-4)]GlcNAc(b1-6)GalNAc
# How it was run: (§1)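 Glycan array data came from 3228 arrays in the Consortium for Functional Glycomics database, and only arrays with an available protein sequence were kept. Glycan names were put into IUPAC-condensed notation, and columns mapping to the same glycan were averaged. The binding signal is a within-array Z-score, averaged across arrays of one protein sequence run at different concentrations or buffers and across linkers. A negative Z-score can be read as non-binding.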
# [2] = target: Gal(b1-3)[GlcNAc(b1-6)]GalNAc
# How it was run: as §1
# [3] = target: Gal(b1-3)[Neu5Ac(a2-6)]GalNAc
# How it was run: as §1
# [4] = target: Gal(b1-3)[Neu5Ac(a2-6)]GlcNAc(b1-4)Gal(b1-4)Glc
# How it was run: as §1
# [5] = target: Gal(b1-3)[Neu5Ac(b2-6)]GalNAc
# How it was run: as §1
# Gal(b1-4)Gal = target: Gal(b1-4)Gal
# How it was run: as §1
# [6] = target: Gal(b1-4)GalNAc(a1-3)[Fuc(a1-2)]Gal(b1-4)GlcNAc
# How it was run: as §1
# [7] = target: Gal(b1-4)GalNAc(b1-3)[Fuc(a1-2)]Gal(b1-4)GlcNAc
# How it was run: as §1
# Gal(b1-4)Glc = target: Gal(b1-4)Glc
# How it was run: as §1
# Gal(b1-4)Glc6S = target: Gal(b1-4)Glc6S
# How it was run: as §1
# Gal(b1-4)GlcNAc = target: Gal(b1-4)GlcNAc
# How it was run: as §1
# [8] = target: Gal(b1-4)GlcNAc(a1-6)Gal(b1-4)GlcNAc
# How it was run: as §1
# Gal(b1-4)GlcNAc(b1-2)Man = target: Gal(b1-4)GlcNAc(b1-2)Man
# How it was run: as §1
# [9] = target: Gal(b1-4)GlcNAc(b1-2)Man(a1-3)Man(b1-4)GlcNAc(b1-4)GlcNAc
# How it was run: as §1
# [10] = target: Gal(b1-4)GlcNAc(b1-2)Man(a1-3)[Gal(b1-4)GlcNAc(b1-2)Man(a1-6)]Man(b1-4)GlcNAc(b1-4)GlcNAc
# How it was run: as §1
# [11] = target: Gal(b1-4)GlcNAc(b1-2)Man(a1-3)[Gal(b1-4)GlcNAc(b1-2)Man(a1-6)]Man(b1-4)GlcNAc(b1-4)[Fuc(a1-6)]GlcNAc
# How it was run: as §1
# [12] = target: Gal(b1-4)GlcNAc(b1-2)Man(a1-3)[Gal(b1-4)GlcNAc(b1-2)Man(a1-6)][Gal(b1-4)GlcNAc(b1-4)]Man(b1-4)GlcNAc(b1-4)[Fuc(a1-6)]GlcNAc
# How it was run: as §1
# [13] = target: Gal(b1-4)GlcNAc(b1-2)Man(a1-3)[Gal(b1-4)GlcNAc(b1-2)Man(a1-6)][GlcNAc(b1-4)]Man(b1-4)GlcNAc(b1-4)[Fuc(a1-6)]GlcNAc
# How it was run: as §1
# [14] = target: Gal(b1-4)GlcNAc(b1-2)Man(a1-3)[GlcNAc(b1-2)Man(a1-6)]Man(b1-4)GlcNAc(b1-4)GlcNAc
# How it was run: as §1
# [15] = target: Gal(b1-4)GlcNAc(b1-2)Man(a1-3)[GlcNAc(b1-4)][Gal(b1-4)GlcNAc(b1-2)Man(a1-6)]Man(b1-4)GlcNAc(b1-4)GlcNAc
# How it was run: as §1
# [16] = target: Gal(b1-4)GlcNAc(b1-2)Man(a1-3)[Man(a1-6)]Man(b1-4)GlcNAc(b1-4)GlcNAc
# How it was run: as §1
# [17] = target: Gal(b1-4)GlcNAc(b1-2)Man(a1-6)Man(b1-4)GlcNAc(b1-4)GlcNAc
# How it was run: as §1
# [18] = target: Gal(b1-4)GlcNAc(b1-2)Man(a1-6)[GlcNAc(b1-2)Man(a1-3)]Man(b1-4)GlcNAc(b1-4)GlcNAc
# How it was run: as §1
# [19] = target: Gal(b1-4)GlcNAc(b1-2)Man(a1-6)[Man(a1-3)]Man(b1-4)GlcNAc(b1-4)GlcNAc
# How it was run: as §1
# [20] = target: Gal(b1-4)GlcNAc(b1-2)[Gal(b1-4)GlcNAc(b1-4)]Man(a1-3)[Gal(b1-4)GlcNAc(b1-2)Man(a1-6)]Man(b1-4)GlcNAc(b1-4)GlcNAc
# How it was run: as §1
# [21] = target: Gal(b1-4)GlcNAc(b1-2)[Gal(b1-4)GlcNAc(b1-4)]Man(a1-3)[Gal(b1-4)GlcNAc(b1-2)[Gal(b1-4)GlcNAc(b1-6)]Man(a1-6)]Man(b1-4)GlcNAc(b1-4)GlcNAc
# How it was run: as §1
# [22] = target: Gal(b1-4)GlcNAc(b1-2)[Gal(b1-4)GlcNAc(b1-4)]Man(a1-3)[GlcNAc(b1-4)][Gal(b1-4)GlcNAc(b1-2)Man(a1-6)]Man(b1-4)GlcNAc(b1-4)GlcNAc
# How it was run: as §1
# [23] = target: Gal(b1-4)GlcNAc(b1-2)[Gal(b1-4)GlcNAc(b1-4)]Man(a1-3)[GlcNAc(b1-4)][Gal(b1-4)GlcNAc(b1-2)[Gal(b1-4)GlcNAc(b1-6)]Man(a1-6)]Man(b1-4)GlcNAc(b1-4)GlcNAc
# How it was run: as §1
# [24] = target: Gal(b1-4)GlcNAc(b1-2)[Gal(b1-4)GlcNAc(b1-6)]Man(a1-6)[Gal(b1-4)GlcNAc(b1-2)Man(a1-3)]Man(b1-4)GlcNAc(b1-4)GlcNAc
# How it was run: as §1
# [25] = target: Gal(b1-4)GlcNAc(b1-2)[Gal(b1-4)GlcNAc(b1-6)]Man(a1-6)[Gal(b1-4)GlcNAc(b1-2)Man(a1-3)]Man(b1-4)GlcNAc(b1-4)[Fuc(a1-6)]GlcNAc
# How it was run: as §1
# [26] = target: Gal(b1-4)GlcNAc(b1-2)[Gal(b1-4)GlcNAc(b1-6)]Man(a1-6)[GlcNAc(b1-4)][Gal(b1-4)GlcNAc(b1-2)Man(a1-3)]Man(b1-4)GlcNAc(b1-4)GlcNAc
# How it was run: as §1
# [27] = target: Gal(b1-4)GlcNAc(b1-2)[Gal(b1-4)GlcNAc(b1-6)]Man(a1-6)[GlcNAc(b1-4)][Gal(b1-4)GlcNAc(b1-2)[Gal(b1-4)GlcNAc(b1-4)]Man(a1-3)]Man(b1-4)GlcNAc(b1-4)[Fuc(a1-6)]GlcNAc
# How it was run: as §1
# [28] = target: Gal(b1-4)GlcNAc(b1-3)Gal(b1-3)GalNAc
# How it was run: as §1
# [29] = target: Gal(b1-4)GlcNAc(b1-3)Gal(b1-3)GlcNAc
# How it was run: as §1
# [30] = target: Gal(b1-4)GlcNAc(b1-3)Gal(b1-4)Glc
# How it was run: as §1
# [31] = target: Gal(b1-4)GlcNAc(b1-3)Gal(b1-4)GlcNAc
# How it was run: as §1
# [32] = target: Gal(b1-4)GlcNAc(b1-3)Gal(b1-4)GlcNAc(b1-2)Man(a1-3)[Gal(b1-4)GlcNAc(b1-3)Gal(b1-4)GlcNAc(b1-2)Man(a1-6)]Man(b1-4)GlcNAc(b1-4)GlcNAc
# How it was run: as §1
# [33] = target: Gal(b1-4)GlcNAc(b1-3)Gal(b1-4)GlcNAc(b1-2)Man(a1-3)[Gal(b1-4)GlcNAc(b1-3)Gal(b1-4)GlcNAc(b1-2)Man(a1-6)]Man(b1-4)GlcNAc(b1-4)[Fuc(a1-6)]GlcNAc
# How it was run: as §1
binder,measurement,setting,value
B1,glycan array binding signal (z-score),[1],-0.345
same,glycan array binding signal (z-score),[2],-0.01
same,glycan array binding signal (z-score),[3],-0.459
same,glycan array binding signal (z-score),[4],-0.004
same,glycan array binding signal (z-score),[5],-0.359
same,glycan array binding signal (z-score),Gal(b1-4)Gal,-0.032
same,glycan array binding signal (z-score),[6],0.229
same,glycan array binding signal (z-score),[7],-0.476
same,glycan array binding signal (z-score),Gal(b1-4)Glc,0.046
same,glycan array binding signal (z-score),Gal(b1-4)Glc6S,-0.162
same,glycan array binding signal (z-score),Gal(b1-4)GlcNAc,-0.145
same,glycan array binding signal (z-score),[8],0.173
same,glycan array binding signal (z-score),Gal(b1-4)GlcNAc(b1-2)Man,-0.294
same,glycan array binding signal (z-score),[9],-0.534
same,glycan array binding signal (z-score),[10],-0.009
same,glycan array binding signal (z-score),[11],-0.109
same,glycan array binding signal (z-score),[12],0.098
same,glycan array binding signal (z-score),[13],-0.42
same,glycan array binding signal (z-score),[14],-0.156
same,glycan array binding signal (z-score),[15],-0.382
same,glycan array binding signal (z-score),[16],-0.118
same,glycan array binding signal (z-score),[17],-0.179
same,glycan array binding signal (z-score),[18],-0.367
same,glycan array binding signal (z-score),[19],-0.388
same,glycan array binding signal (z-score),[20],0.157
same,glycan array binding signal (z-score),[21],-0.283
same,glycan array binding signal (z-score),[22],-0.448
same,glycan array binding signal (z-score),[23],-0.568
same,glycan array binding signal (z-score),[24],-0.35
same,glycan array binding signal (z-score),[25],0.198
same,glycan array binding signal (z-score),[26],-0.429
same,glycan array binding signal (z-score),[27],-0.263
same,glycan array binding signal (z-score),[28],-0.331
same,glycan array binding signal (z-score),[29],-0.454
same,glycan array binding signal (z-score),[30],0.042
same,glycan array binding signal (z-score),[31],-0.362
same,glycan array binding signal (z-score),[32],0.012
same,glycan array binding signal (z-score),[33],0.109
